# The list shows a part of the results.
# B1: Epa6 (Candida glabrata), Q6DTM7_CANGB (protein)
# chain: MGSSHHHHHHSSGLVPRGSHMKDDYSSSLSNNNLGWTDPTEFPLGCSPNVTTPKNGLSMELYSYDYLKSGSNPCWDAAYLDPNYPRTGYKSHRLLAKVENVAGNINFYYHAPMGCTSLFDTLPQAYNYRTPLTMTNFTMLLYGYFKPKVTGYHTFTISADDLLFVNFGAGNAFDCCKRESSADDFGNYQAYAVWGSQTAKDDLTVHLDAGLYYPIRIFFNNRDNDGALSLTLKTESDPNPVIDFSDYFYSFDDTKDGCPGLVSYDTS
# How the values were obtained:
# Experiment in all cases: glycan array binding signal (z-score within array); higher = stronger binding
# Conditions in all cases: glycan notation: IUPAC condensed, linker removed
# [1] = molecular target: Man(a1-3)[Man(a1-6)]Man(a1-6)[Man(a1-2)Man(a1-3)]Man(b1-4)GlcNAc(b1-4)GlcNAc
# How it was run: (§1)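 The Consortium for Functional Glycomics database supplied 3228 glycan arrays, of which those lacking an available protein sequence were dropped. The binding signal, a within-array Z-score, was averaged across arrays of the same protein sequence and across linkers. Negative scores can be read as non-binding.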
# [2] = molecular target: Man(a1-3)[Man(a1-6)]Man(a1-6)[Man(a1-3)]Man
# How it was run: as §1
# [3] = molecular target: Man(a1-3)[Man(a1-6)]Man(a1-6)[Man(a1-3)]Man(b1-4)GlcNAc(b1-4)GlcNAc
# How it was run: as §1
# [4] = molecular target: Man(a1-3)[Man(a1-6)]Man(b1-4)GlcNAc(b1-4)GlcNAc
# How it was run: as §1
# [5] = molecular target: Man(a1-3)[Man(a1-6)]Man(b1-4)GlcNAc(b1-4)[Fuc(a1-6)]GlcNAc
# How it was run: as §1
# Man(a1-6)Man = molecular target: Man(a1-6)Man
# How it was run: as §1
# Man(b1-4)GlcNAc = molecular target: Man(b1-4)GlcNAc
# How it was run: as §1
# MurNAc(b1-4)GlcNAc = molecular target: MurNAc(b1-4)GlcNAc
# How it was run: as §1
# Neu5Ac(a2-3)Gal = molecular target: Neu5Ac(a2-3)Gal
# How it was run: as §1
# [6] = molecular target: Neu5Ac(a2-3)Gal(b1-3)GalNAc
# How it was run: as §1
# [7] = molecular target: Neu5Ac(a2-3)Gal(b1-3)GalNAc(b1-3)Gal(a1-4)Gal(b1-4)Glc
# How it was run: as §1
# [8] = molecular target: Neu5Ac(a2-3)Gal(b1-3)GalNAc(b1-4)[Neu5Ac(a2-3)]Gal(b1-4)Glc
# How it was run: as §1
# [9] = molecular target: Neu5Ac(a2-3)Gal(b1-3)GalNAc(b1-4)[Neu5Ac(a2-8)Neu5Ac(a2-3)]Gal(b1-4)Glc
# How it was run: as §1
# [10] = molecular target: Neu5Ac(a2-3)Gal(b1-3)GalNAc6S
# How it was run: as §1
# [11] = molecular target: Neu5Ac(a2-3)Gal(b1-3)GlcNAc
# How it was run: as §1
# [12] = molecular target: Neu5Ac(a2-3)Gal(b1-3)GlcNAc(b1-2)Man
# How it was run: as §1
# [13] = molecular target: Neu5Ac(a2-3)Gal(b1-3)GlcNAc(b1-2)Man(a1-3)[GlcNAc(b1-4)][Neu5Ac(a2-3)Gal(b1-3)GlcNAc(b1-2)Man(a1-6)]Man(b1-4)GlcNAc(b1-4)GlcNAc
# How it was run: as §1
# [14] = molecular target: Neu5Ac(a2-3)Gal(b1-3)GlcNAc(b1-2)Man(a1-3)[Neu5Ac(a2-3)Gal(b1-3)GlcNAc(b1-2)Man(a1-6)]Man(b1-4)GlcNAc(b1-4)GlcNAc
# How it was run: as §1
# [15] = molecular target: Neu5Ac(a2-3)Gal(b1-3)GlcNAc(b1-3)Gal(b1-3)GlcNAc
# How it was run: as §1
# [16] = molecular target: Neu5Ac(a2-3)Gal(b1-3)GlcNAc(b1-3)Gal(b1-4)GlcNAc
# How it was run: as §1
# [17] = molecular target: Neu5Ac(a2-3)Gal(b1-3)GlcNAc(b1-3)GalNAc
# How it was run: as §1
# [18] = molecular target: Neu5Ac(a2-3)Gal(b1-3)GlcNAc(b1-4)Gal(b1-4)Glc
# How it was run: as §1
# [19] = molecular target: Neu5Ac(a2-3)Gal(b1-3)GlcNAc(b1-6)GalNAc
# How it was run: as §1
# [20] = molecular target: Neu5Ac(a2-3)Gal(b1-3)GlcNAc6S
# How it was run: as §1
# [21] = molecular target: Neu5Ac(a2-3)Gal(b1-3)[Fuc(a1-4)]GlcNAc
# How it was run: as §1
# [22] = molecular target: Neu5Ac(a2-3)Gal(b1-3)[Fuc(a1-4)]GlcNAc(b1-3)Gal(b1-3)[Fuc(a1-4)]GlcNAc
# How it was run: as §1
# [23] = molecular target: Neu5Ac(a2-3)Gal(b1-3)[Fuc(a1-4)]GlcNAc(b1-3)Gal(b1-4)[Fuc(a1-3)]GlcNAc
# How it was run: as §1
# [24] = molecular target: Neu5Ac(a2-3)Gal(b1-3)[GlcNAc(b1-6)]GalNAc
# How it was run: as §1
# [25] = molecular target: Neu5Ac(a2-3)Gal(b1-3)[Neu5Ac(a2-6)]GalNAc
# How it was run: as §1
# [26] = molecular target: Neu5Ac(a2-3)Gal(b1-3)[Neu5Ac(a2-6)]GlcNAc(b1-3)[Fuc(a1-3)[Gal(b1-4)]GlcNAc(b1-6)]Gal(b1-4)Glc
# How it was run: as §1
# [27] = molecular target: Neu5Ac(a2-3)Gal(b1-3)]Neu5Ac(a2-3)Gal(b1-4)]GlcNAc
# How it was run: as §1
# Neu5Ac(a2-3)Gal(b1-4)Glc = molecular target: Neu5Ac(a2-3)Gal(b1-4)Glc
# How it was run: as §1
# [28] = molecular target: Neu5Ac(a2-3)Gal(b1-4)GlcNAc
# How it was run: as §1
# [29] = molecular target: Neu5Ac(a2-3)Gal(b1-4)GlcNAc(b1-2)Man
# How it was run: as §1
# [30] = molecular target: Neu5Ac(a2-3)Gal(b1-4)GlcNAc(b1-2)Man(a1-3)[GlcNAc(b1-4)][Neu5Ac(a2-3)Gal(b1-4)GlcNAc(b1-2)Man(a1-6)]Man(b1-4)GlcNAc(b1-4)GlcNAc
# How it was run: as §1
# [31] = molecular target: Neu5Ac(a2-3)Gal(b1-4)GlcNAc(b1-2)Man(a1-3)[Neu5Ac(a2-3)Gal(b1-4)GlcNAc(b1-2)Man(a1-6)]Man(b1-4)GlcNAc(b1-4)GlcNAc
# How it was run: as §1
# [32] = molecular target: Neu5Ac(a2-3)Gal(b1-4)GlcNAc(b1-2)Man(a1-3)[Neu5Ac(a2-3)Gal(b1-4)GlcNAc(b1-2)Man(a1-6)]Man(b1-4)GlcNAc(b1-4)[Fuc(a1-6)]GlcNAc
# How it was run: as §1
# [33] = molecular target: Neu5Ac(a2-3)Gal(b1-4)GlcNAc(b1-2)Man(a1-3)[Neu5Ac(a2-6)Gal(b1-4)GlcNAc(b1-2)Man(a1-6)]Man(b1-4)GlcNAc(b1-4)GlcNAc
# How it was run: as §1
binder,measurement,setting,value
B1,glycan array binding signal (z-score),[1],-0.257
same,glycan array binding signal (z-score),[2],-0.281
same,glycan array binding signal (z-score),[3],-0.243
same,glycan array binding signal (z-score),[4],-0.312
same,glycan array binding signal (z-score),[5],-0.322
same,glycan array binding signal (z-score),Man(a1-6)Man,-0.325
same,glycan array binding signal (z-score),Man(b1-4)GlcNAc,-0.332
same,glycan array binding signal (z-score),MurNAc(b1-4)GlcNAc,-0.339
same,glycan array binding signal (z-score),Neu5Ac(a2-3)Gal,-0.285
same,glycan array binding signal (z-score),[6],-0.316
same,glycan array binding signal (z-score),[7],-0.271
same,glycan array binding signal (z-score),[8],-0.277
same,glycan array binding signal (z-score),[9],-0.208
same,glycan array binding signal (z-score),[10],-0.325
same,glycan array binding signal (z-score),[11],-0.298
same,glycan array binding signal (z-score),[12],-0.305
same,glycan array binding signal (z-score),[13],-0.317
same,glycan array binding signal (z-score),[14],-0.316
same,glycan array binding signal (z-score),[15],-0.298
same,glycan array binding signal (z-score),[16],-0.325
same,glycan array binding signal (z-score),[17],-0.341
same,glycan array binding signal (z-score),[18],-0.269
same,glycan array binding signal (z-score),[19],-0.296
same,glycan array binding signal (z-score),[20],-0.308
same,glycan array binding signal (z-score),[21],-0.329
same,glycan array binding signal (z-score),[22],-0.298
same,glycan array binding signal (z-score),[23],-0.315
same,glycan array binding signal (z-score),[24],-0.316
same,glycan array binding signal (z-score),[25],-0.273
same,glycan array binding signal (z-score),[26],-0.276
same,glycan array binding signal (z-score),[27],-0.32
same,glycan array binding signal (z-score),Neu5Ac(a2-3)Gal(b1-4)Glc,-0.3
same,glycan array binding signal (z-score),[28],-0.313
same,glycan array binding signal (z-score),[29],-0.24
same,glycan array binding signal (z-score),[30],-0.309
same,glycan array binding signal (z-score),[31],-0.306
same,glycan array binding signal (z-score),[32],-0.308
same,glycan array binding signal (z-score),[33],-0.32

# From the supplement of paper PMC8728848
